From the supplement of paper PMC3334620
The full ranking holds about 33,000 sequences; the median of “E-score (-0.5 to 0.5)” is about -0.01, and the highest 2% start at about 0.26. Some of the results follow.

What follows are sequences tested against Ste12 (UniProt P13574) (assay: PBM E-score (8-mer binding enrichment) (E-score (-0.5 to 0.5)); higher = stronger / more preferred TF binding; most listed sequences are background and not binding sites). Conditions: protein concentration: 200 nM; construct: GST-DNA-binding domain.
Procedure, shortened: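 Bound GST-tagged yeast transcription factors, applied at about 100-200 nM to double-stranded universal all-10-mer Agilent arrays, were detected with fluorescent anti-GST. Scans were normalised with masliner. A modified Wilcoxon-Mann-Whitney statistic, the E-score, was assigned to each ungapped eight-base word pooled with its reverse complement by the Universal PBM Analysis Suite.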

Sequence	PBM E-score
ACAAGCTG	0.0467
CGAGATCC	-0.209
AGAAAGGG	0.0728
GGCTAATA	0.152
CAAGCGCG	0.00382
GTCTTCTA	0.0531
CGCTTTGC	0.0024
CACACGCC	0.158
AGGCGCAT	-0.287
AGTCACGG	-0.0689
CTAATTCC	-0.0281
ACCGCCAT	-0.0412
AAGCCCAC	-0.0847
CTTCGCCA	-0.0108
CAATCATG	0.0722
ACCATGCA	0.0206
GATTCGCA	0.148
GCGAGACA	-0.0151
CAATCATC	-0.0782
AGTTCTGG	0.0162
GACCCGAA	0.00892
CCTAAGGC	-0.258
ACGTCCCG	-0.126
GATAGGCC	-0.234
GATTACCC	0.0298

Sequence	PBM E-score
CAAAATCG	0.0648
CTGGCAGC	0.0431
ACGCGTCC	-0.045
AGCATTTA	0.0171
CGGATCCC	-0.248
AGACTTGC	-0.232
ACAATGGC	0.0105
GTACTGAA	0.129
CTGGCCGA	-0.0768
AACCATAA	0.147
ACCGCACC	0.0603
TCATTCAA	0.189
GGAGTGAA	0.117
GTGTCGGA	0.0796
TAGAAGCA	0.0215
AGGTGTTG	-0.0455
AGCTGAAG	-0.127
AGCACCGC	-0.158
ACTGGGCC	-0.244
AACGGTGC	-0.0574
CGAACCTC	0.108
AAGTGGAA	0.0423
CAGCCTTA	-0.172
CCCAAACC	0.0877
CAATAATA	0.106

Sequence	PBM E-score
ATTTAAAA	0.314
GTCAAGAA	0.165
ATTGTGAC	0.0332
CGCACACG	-0.0244
AGAGTCTA	-0.178
GGGACCTA	0.0802
CTAGCAGA	-0.212
AATCAAGG	-0.0911
CCCGGCAC	-0.137
CCCAAGTA	-0.0167
GTACGCAA	-0.0403
CTGAGGGA	-0.106
GCAGTTTA	0.0336
AGGTTTTC	0.241
AGCCTAGG	-0.187
ACCTTAAA	0.0279
AATTCGGT	0.195
GTACAGCA	-0.0907
ATACACAT	0.0874
ACAGATAC	0.00521
GGCATCAC	-0.235
GGTATCAC	-0.105
ACTTAATC	0.0743
ACGATTGC	-0.0741
GTCAGTCA	-0.119

Sequence	PBM E-score
CTGTATAC	0.00826
GTCACCTA	-0.214
CTCTGCAC	0.0607
AAAGCACT	0.0173
AATACGCC	0.0624
CCGCTATC	0.0754
CGTCCCCA	-0.126
GGATTTGA	0.046
CCATCGCC	-0.216
CACGGTGC	0.101
ACGGGGGA	-0.106
ACGACCCG	-0.11
CCTATACA	-0.0187
AAAGCGAC	0.0447
ATAAAAAG	0.315
GGGAATAA	0.123
ATCGGTCA	0.00948
CATTATCG	-0.05
CTACGTAC	-0.148
ACGGAACC	-0.0567
CTGGTGAA	-0.117
GACGGTTA	-0.0498
GAATAATA	0.286
ACAAGGAT	0.00421
AAATCCTC	-0.0111

Sequence	PBM E-score
ATAACTCC	0.00165
TCGTTGAA	-0.00474
ACTTGTGC	-0.106
CAAAGAGA	-0.00487
AAGGTACA	0.0739
AAAAGTCA	0.099
CGCTAAAG	-0.191
AGATATGC	-0.0615
AAGCGTCC	-0.272
CAGCAGAG	-0.0328
CTTTACAC	0.144
GCTGGCCC	-0.203
GCGCTGAC	0.0672
ATGACGGC	0.078
CGAGGAAA	0.0137
CTATTTTC	0.0376
CTGCACCC	-0.0758
ATATTCCA	0.0805
ATGGTCAA	0.0667
CGCAGACA	-0.057
CATAGTGA	-0.0589
CATCCCAG	-0.0583
CTAGGTAC	-0.156
ACCGAGCT	0.0151
GGATGCCC	-0.166

Sequence	PBM E-score
CATATACA	0.148
GCTTGTCA	-0.0245
CTCCCACA	-0.00169
CGTACCGC	-0.0216
ACACGGGA	-0.0631
AACCGACA	0.115
CAATTTGG	-0.0412
GGCCTTCA	-0.0265
AAATGGAG	-0.108
CACGTATG	-0.126
CGGAATCA	0.0602
CCCCGCGC	0.0272
GCCCGGGA	0.029
ACCACCCT	-0.127
CTATGGGC	-0.159
ATCGGCAC	-0.0825
AACACTTC	0.135
AAGCATAT	0.0466
AACCTTCA	-0.0332
CGGCTAGA	-0.134
ACCGGACA	-0.201
CAAAGCCC	-0.111
AGGAGTTG	-0.00808
ACGTGGAC	-0.14
CAGGCTAC	-0.0983

Sequence	PBM E-score
CGCATATC	0.105
CTGGTCAC	-0.256
GCCCCAGA	-0.0561
CCACACCC	0.148
CATGATCG	0.0593
TACTCCCA	0.056
ATAAATTC	0.102
AACAAGGT	-0.0738
AAGTCTAC	-0.116
CCGCACTC	-0.114
CAGGCAAC	-0.0818
CATAACTC	-0.0102
CGTGTCGA	0.0241
GCAATAAA	0.279
AATATACG	0.0752
AGCCTACC	-0.137
ACGACAGC	-0.0551
AATAGATT	0.134
CGATTAAG	0.062
CACCCTAG	0.105
CGTATAAG	-0.0378
ATCTGACG	-0.0745
